# Test results from PMC6212790.
# The list shows a part of the results. At the low end of the ranking, values are background and their order means little.
# Molecular target: T1, GST-Rok (full length) (UniProt O34857)
# T1 sequence: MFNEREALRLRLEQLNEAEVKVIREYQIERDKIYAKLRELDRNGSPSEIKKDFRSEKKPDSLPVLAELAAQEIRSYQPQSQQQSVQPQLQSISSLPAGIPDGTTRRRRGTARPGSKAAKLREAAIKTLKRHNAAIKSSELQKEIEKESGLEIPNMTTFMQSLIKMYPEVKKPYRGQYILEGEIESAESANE
# Assay: protein binding microarray;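 further: rank score from −0.5 (least bound) to 0.5 (best bound)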
# Settings: Rok is a gene silencer of Bacillus subtilis; high values mean tight binding; most listed sequences are background and not binding sites; double strand, one strand shown
row,Sequence,binding signal [E-score]
1,CTCTTAAG,-0.225
2,GCTGACTA,0.129
3,GAAGGCGC,-0.104
4,CGTTGCCC,-0.327
5,ACATTCGG,0.0153
6,CAGAACAG,0.0652
7,CTAATTGA,0.0109
8,ATTCGACG,0.17
9,CAGCAAGG,-0.25
10,GGCACGTA,0.0678
11,GCGGGTAC,-0.0451
12,ACTTGTCT,-0.00713
13,AGTGATGC,-0.0437
14,CTTTAGTC,-0.228
15,AGAAATAA,0.328
16,CATTTGGG,0.0352
17,GACATACC,-0.0287
18,CAAGCTCG,-0.161
19,GAACCCTA,-0.0592
20,GCGTGGAC,-0.209
21,ATGTGGCA,-0.0115
22,AGCTGGCC,-0.207
23,CGGACGAC,-0.205
24,TGCGCACA,0.0842
25,AATCTTTG,-0.0102

row,Sequence,binding signal [E-score]
1,CTTTTGGC,-0.127
2,CCTTAACG,-0.0995
3,GGGGATCA,-0.296
4,CCGACCAA,-0.12
5,GATTGATA,0.23
6,CAAAAGAA,-0.298
7,AACGAGAC,0.117
8,AGAAGCCA,-0.182
9,CGTACAGC,-0.0495
10,CCTGTCAG,-0.202
11,AGTTGCGG,0.125
12,AGAGCCTG,-0.136
13,ACGCGGAG,0.0782
14,CGTACTCA,0.0155
15,CGCATTGC,-0.0682
16,CTCGTCGA,-0.102
17,CAACCGTG,0.0793
18,AAGATGCA,0.0603
19,GCGGCATA,-0.0947
20,ACATGGGA,-0.0271
21,CCCTGCCA,-0.272
22,ACTGTTCG,0.158
23,CGTATTTC,0.108
24,ATTGTATG,0.26
25,AGGGGGGC,-0.495

row,Sequence,binding signal [E-score]
1,ACCAAGCG,-0.165
2,CAGGGCCA,-0.125
3,CGCCGAAA,-0.23
4,ACAAAGGC,-0.12
5,ACCTGTCG,-0.112
6,ATACCAGC,0.234
7,ATGCGGAG,-0.23
8,ACAGCCCT,-0.106
9,AACCTAGC,-0.105
10,CAGCATAA,0.126
11,CCCCAGGC,-0.228
12,CTTAAGAC,-0.107
13,TAGGATCA,-0.000121
14,ATAGTTAC,0.349
15,CGGAAAAG,0.012
16,GCAACTGA,-0.0401
17,GTTCGAAA,-0.0356
18,GCCCCGCA,-0.257
19,GAGATGGC,-0.167
20,AACAATTG,0.136
21,CTTAGTTC,0.0779
22,TGAAGCAA,-0.166
23,TAGAAGGA,0.22
24,CTTGCCGC,-0.143
25,GCAGTGGA,-0.172

row,Sequence,binding signal [E-score]
1,CTCCCGGA,-0.199
2,TGTTAGAA,0.113
3,CGGCAACG,-0.16
4,TTATAAAA,0.236
5,ACGGCCTC,-0.321
6,CCCGACGC,-0.28
7,TAGGGATA,0.1
8,GTAACACA,0.152
9,GTTCAATA,0.201
10,CTTTAAAA,-0.0254
11,CCTAGAAA,0.0461
12,TATTAATA,0.368
13,CCGGTTAG,-0.0832
14,TAAGTCCA,0.0283
15,AACATGAA,0.163
16,CAAATATC,0.285
17,ACGACGGA,-0.0323
18,CGAGGCGA,-0.165
19,CCAGGGCA,-0.25
20,GTGAAACA,0.0624
21,TCTTGACA,0.0197
22,CAACTGTC,0.0826
23,TCACATCA,0.0834
24,TGATAACA,0.126
25,CGAATCCC,-0.125

row,Sequence,binding signal [E-score]
1,AGCGGGAG,-0.244
2,CGGTCGGA,-0.301
3,GTTCTACA,0.265
4,GGGGCGAA,-0.227
5,GTCCTGCA,-0.2
6,CTAATAAG,0.0873
7,AAGATCCC,-0.0989
8,AAAACGCA,0.107
9,TGGGCTAA,0.0429
10,ATTAGGCC,-0.131
11,CGCTTGAC,-0.213
12,ATGATTGA,0.0352
13,GTAGGGCA,-0.119
14,CGTGCACC,-0.2
15,AGAGGTGA,-0.164
16,TCGGCAGA,-0.063
17,ATCGACCC,0.0163
18,CATGAGCC,-0.15
19,CAGAGCCG,-0.316
20,CGGGAGCA,-0.316
21,CTATCATA,0.207
22,TCAATGGA,0.0724
23,AATCCTTG,-0.011
24,CTTCTCCC,-0.255
25,ATTGCGAA,0.169

row,Sequence,binding signal [E-score]
1,ATACCGTG,0.212
2,CAGCGCCG,-0.31
3,AGTTAAAG,-0.00997
4,AGTTACAA,0.186
5,GTTAAACA,0.0864
6,AAAGCACA,-0.00894
7,ACAATTCA,0.0585
8,ACTCACTA,0.177
9,CAATAACC,0.0248
10,CCGATCGG,-0.294
11,CGAAGCGA,0.07
12,ACGATAGT,0.324
13,AATGGTTG,-0.109
14,TCCCTCCA,-0.329
15,ATATGTTC,0.184
16,GAGGTGGC,-0.206
17,GCAAAGGA,-0.0739
18,AGTGTTTA,0.136
19,CCCGGTCA,-0.142
20,GAATATGA,0.0208
21,AGTAAGCG,0.0086
22,GTTCACGA,-0.081
23,GTTCCAAC,-0.185
24,CAGTGGAC,-0.176
25,CAAGCCAC,-0.291

row,Sequence,binding signal [E-score]
1,GACCGGGC,-0.436
2,ATCGTCAA,0.079
3,AACGGATC,0.0282
4,CGTTCTGC,-0.129
5,CTCACCCA,0.0443
6,ATGGCGAG,-0.164
7,CCAGACCA,-0.192
8,AAGTAGAC,0.00429
9,AATACATG,0.108
10,GCCCAGAA,-0.165
11,CATCTCGG,-0.00592
12,CGCGTAAC,0.264
13,CAACGACG,-0.1
14,GGACCTAC,-0.0536
15,CCTATACA,0.231
16,TACGCAGA,-0.0189
17,GGAATACC,0.124
18,ATGCATAA,0.28
19,CGTCACAC,-0.186
20,AAGATGGA,-0.177
21,GTTCTCCA,-0.00255
22,CAGACTCC,-0.148
23,CTGGTCAA,-0.0989
24,AGATTCTC,0.0838
25,CCCACTCA,-0.199

row,Sequence,binding signal [E-score]
1,CAAACCGG,-0.00327
2,CTTGCAAA,-0.142
3,ACATTGTA,0.222
4,CGAGCACA,-0.0389
5,CTAAAGAA,0.108
6,CCCGAGCG,-0.397
7,CAAAATTC,-0.00555
8,CGAAACGC,-0.256
9,CAGCCTCG,-0.341
10,GCTCCACC,-0.225
11,CGCTACAC,-0.0954
12,AGCGGAAC,-0.107
13,ATGGCCCA,0.0324
14,CGGATACA,0.103
15,GGGTTATA,0.0571
16,GGAGTCAA,-0.119
17,GCTCAAGA,-0.28
18,GAGTATAA,0.0291
19,CCGGTGCA,-0.334
20,AGTCACCC,-0.346
21,ACACACGT,-0.0125
22,ATTAACTA,0.398
23,GGGCGCAA,-0.371
24,CAATTGCG,0.247
25,CTGAGCGC,-0.107

row,Sequence,binding signal [E-score]
1,CCTCCCCC,-0.416
2,AATTCCTA,0.109
3,AGCATCGG,-0.146
4,CCGTCGTA,0.0228
5,GAGACGAC,-0.291
6,CACTAGGA,-0.0636
7,GCACCAGC,-0.164
8,AGGCCGAG,-0.377
9,CATTAATA,0.171
10,ACAATGAC,0.00584
11,GCCGAAAC,-0.091
12,TCGATACA,0.144
13,ATACCGAG,0.116
14,CGTGCCAC,-0.281
15,GAGAATCA,0.132
16,CCATTAGG,-0.175
17,AGTACTAT,0.388
18,ATCTTTAA,0.0286
19,CTTGATTA,0.0543
